# Among all 45,000 compounds or so, about 200 (0.44%) were called active. Another 7% or so got no clear call; they are omitted. Calls follow the shape of the dose curve; as a rule, active = well fitted activation curve with a large enough effect; inconclusive = small, poorly fitted or top-dose-only effect; inactive = no such curve, though single readings can be large or run the other way. This is one part of the list.
# Experiment: qHTS of TDP-43 Inhibitors: NCGC Sytravon Library Screen; also: nearly all actives have a fitted effect of over 55% in size; as to growth rescue (activation): 0% is about no effect
# Settings: yeast TDP-43 toxicity rescue, BacTiter-Glo growth, 24 h; series mostly up to 46.1 µM; growth rescue (activation): at the top concentration
# How it was run: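 TDP-43-expressing yeast, pregrown in raffinose, seeded at OD600 0.02 in galactose medium with compound for 24 hr at 30 deg C. Growth read by BacTiter-Glo luminescence, so rescue of toxicity appears as activation.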
# Potency is read from the fitted curve at half-maximal effect.
SMILES,growth rescue (activation),Potency
COc1ccccc1CNC(=O)C(NS(=O)(=O)c1ccc2c(c1)OCCO2)C(C)C (stereo not drawn),inactive: 9.61%,
COc1ccc(CC(=O)N2CCN(c3ccccc3OC)CC2)cc1,inactive: -3.07%,
CC(C)c1ccc(NC(=O)NN2CCOCC2)cc1,inactive: -10.2%,
Cc1cc(=O)[nH]c(SCC(=O)NCCC2=CCCCC2)n1,inactive: -4.43%,
Cc1ccc(C2CC(c3cccs3)=NN2C(=O)CCl)cc1 (stereo not drawn),,active: 12.6 µM
CCN(CC)C(=O)Cn1cnc2sc(C(=O)N3CCN(c4ccc(F)cc4)CC3)c(C)c2c1=O,inactive: 8.19%,
O=C(Nc1nc2ccc(S(=O)(=O)N3CCOCC3)cc2s1)c1cccs1,inactive: 8.49%,
Cn1c(=O)c2c(nc(N/N=C/c3cccnc3)n2Cc2ccc(F)cc2)n(C)c1=O,inactive: 12.9%,
CC(C)C(NC(=O)c1ccc(C(C)(C)C)cc1)C(=O)N1CCCC1 (stereo not drawn),inactive: 5.18%,
CCOC(=O)c1sc(NC(=O)c2ccc(S(=O)(=O)N3CCCCC3)cc2)nc1-c1ccccc1,inactive: 27.3%,
O=C(Nc1ccccc1Cl)Nc1ccccc1Cl,inactive: 32.3%,
CCC(CC)N1CCN(Cc2nc3ccc([N+](=O)[O-])cc3c(=O)n2-c2ccccc2F)CC1,inactive: 10.7%,
COC(=O)c1cn(Cc2ccccn2)c(=O)c2ccccc12,inactive: 7.67%,
COc1cc(NC(=O)COC(=O)/C=C/c2ccc(Cl)cc2Cl)cc(OC)c1,inactive: 12.4%,
O=C(NCc1ccncc1)C(=O)Nc1nccs1,inactive: 14.5%,
CCN(CC(=O)Nc1ccc(S(=O)(=O)N2CCCC2)cc1)CC(=O)Nc1cccc(OC)c1,inactive: 2.59%,
CC(=O)c1c(C)[nH]c(C(=O)CSc2nnc(-c3ccco3)o2)c1C,inactive: -5.75%,
COc1cc(NS(C)(=O)=O)cc(OC)c1OC,inactive: 3.49%,
CCc1ccc([C@@H]2C[C@H]3CN(Cc4ccccc4OC)C(=O)[C@]34CCCN24)cc1,inactive: 12.3%,
Cc1c(C(=O)OCC(=O)N2CCN(c3ccccc3)CC2)oc2ccccc12,inactive: 22.1%,
Cc1ccc(/C=N/Nc2nnc(Cl)c3ccccc23)cc1,inactive: -3.07%,
CCOC(=O)C1CCCN(CCC(=O)Nc2ccc(C)c(C)c2)C1 (stereo not drawn),inactive: 11.9%,
CC(OC(=O)CN1C(=O)C2C3C=CC(C4CC34)C2C1=O)C(=O)c1ccccc1 (stereo not drawn),inactive: -2.7%,
O=S(=O)(c1ccccc1)c1nc(-c2ccc(Cl)cc2)oc1NCCCN1CCOCC1,inactive: 16.9%,
CCOc1ccc(C(=O)c2cc([N+](=O)[O-])ccc2N2CCOCC2)cc1,inactive: 4.01%,
Cc1ccccc1NC(=S)NCCc1c[nH]c2ccccc12,inactive: 10.7%,
CC(C(=O)c1c[nH]c(C(=O)N=CN(C)C)c1)c1ncc(C(F)(F)F)cc1Cl (stereo not drawn),inactive: 12.7%,

SMILES,growth rescue (activation),Potency
Cc1cc(S(=O)(=O)N2CCN(c3ccc(F)cc3)CC2)ccc1-n1cnnn1,inactive: 7.11%,
Cc1ccc(NC(=O)N2CCCC2C(=O)NCc2ccc3c(c2)OCO3)cc1 (stereo not drawn),inactive: 7.53%,
COc1ccc(C(=O)Nc2cc(C(=O)O)cc(C(=O)O)c2)cc1Cl,inactive: -5.95%,
Cc1nc2sc(-c3ccccc3)cc2c(=O)n1/N=C/N(C)C,inactive: -4.41%,
CN(Cc1ccccc1)C(=O)Cn1nnc(-c2ccccc2)c1COc1ccccc1,inactive: 20.5%,
CCOC(=O)c1c(C)n(C)c2cc(-c3ccc(F)cc3)c(O)cc12,inactive: 8.17%,
Cn1c(SCC(=O)Nc2ccc(Br)cc2)nc(O)cc1=O,inactive: 3.49%,
Cc1ccc([N+](=O)[O-])cc1NC(=O)CSc1n[nH]c(-c2cccnc2)n1,inactive: -4.03%,
CCc1ccc(Cn2ncc3c(C(=O)O)cc(C)nc32)cc1,inactive: 14%,
CC(=O)N1CCN(c2ccc(S(=O)(=O)N3CCCCC3)cc2[N+](=O)[O-])CC1,inactive: 2.41%,
Cc1ccc(C(C)C)c(OCC(=O)NN=C2CCCCCCC2)c1,inactive: 17%,
N#Cc1ccccc1OCC(=O)OCC(=O)N1CCCC1,inactive: 0.653%,
Cc1noc(C)c1-c1ccc(C(=O)NCC(C)C)c2occc12,inactive: 11.1%,
Cc1c(C(=O)c2ccc(F)cc2F)c2ccccn2c1CCC#N,inactive: 11.8%,
O=C(COC(=O)c1cccs1)Nc1ccccc1Cl,inactive: -6.28%,
Cc1ccc2c(c1)N(CC(=O)NCCCN1CCCCC1)C(=O)CO2,inactive: 8.87%,
CSCCC(NS(=O)(=O)c1ccc(Cl)cc1)C(=O)OCC(=O)N1CCCc2ccccc21 (stereo not drawn),inactive: -4.98%,
CCCCC(=O)Nc1cc(OCC)c(NC(=S)NC)cc1OCC,inactive: -1.36%,
CC(C)NS(=O)(=O)c1ccc(OCC(=O)NC(C)c2ccccc2)cc1 (stereo not drawn),inactive: 0.0514%,
CC1(C)CC(=O)C=C(Nc2ccc(Cl)cc2)C1,inactive: -1.04%,
O=C(CN1C(=O)c2ccccc2S1(=O)=O)Nc1cc(S(=O)(=O)N2CCCCC2)ccc1Cl,inactive: 20%,
Cc1ccc(CSc2nc3nc(C)cc(C)c3c(=O)[nH]2)cc1,inactive: 10.5%,
CCN(c1ccccc1)C1(O)C(=O)c2ccccc2C1=O,inactive: 8.86%,
COc1ccc(Br)cc1S(=O)(=O)NCCN1CCOCC1,inactive: 1.63%,
COc1cc(CN(C)C(C)C(=O)Nc2ccc([N+](=O)[O-])cc2Cl)ccc1OC(F)F (stereo not drawn),inactive: -5.67%,
CN(C)c1cccc(C(=O)OCC(=O)N(C)c2ccccc2)c1,inactive: 4.56%,

# Source: PubChem BioAssay AID1347073 (National Center for Advancing Translational Sciences (NCATS), 2019)
